Experimental data reported in PubChem BioAssay AID1745847 (National Center for Advancing Translational Sciences (NCATS), 2022).
The campaign covered roughly 2,100 compounds. About 670 (32%) were called active. Inconclusive results, whose numbers are uncertain, are shown with a selection of clear calls. Calls follow the shape of the dose curve; as a rule, active = well fitted inhibition curve with a large enough effect; inconclusive = small, poorly fitted or top-dose-only effect; inactive = no such curve, though single readings can be large or run the other way. Where the call is inconclusive, the potency comes from a doubtful curve fit.

Experiment: CMV-Luciferase Counterscreen for Inhibitors of ATXN expression; also: nearly all actives have a fitted effect of over 55% in size
Details: HEK-293 CMV-luciferase reporter, luminescence, 24 h; series mostly up to 57.5 µM; activity change, negative = inhibition: at the top concentration
% is scaled to controls: 0 for no effect and ±100 for the full control effect; potency is read from the fitted curve at half-maximal effect; tags tell the direction and shape of the fitted curve.

Row | SMILES | Potency | activity change, negative = inhibition
1 | COc1cc(C(=O)N/N=C(\c2ccccc2)c2ccccn2)cc(OC)c1OC | active: 0.398 µM | 
2 | COc1ccc(CCn2c(C)cc(C(=O)CSc3nc(N)cc(=O)[nH]3)c2C)cc1 | inconclusive: 2.82 µM [inhibitor, partial curve, poor fit] | 
3 | Cc1cc(=O)oc2c1c(C)nn2-c1cccc(Cl)c1 |  | inactive: -12.8% [at 11.4 µM]
4 | Cc1sc2ncnc(NCC(O)c3ccc([N+](=O)[O-])cc3)c2c1C (stereo not given) | active: 5.62 µM | 
5 | CCC(CC)C(=O)c1c[nH]c(C(=O)NCc2ccccn2)c1 |  | inactive: 5.87%
6 | CC(C)C(=O)Nc1ccc(C(=O)N/N=C/c2cc(Br)cc(Br)c2O)cc1 | inconclusive: 15.8 µM [inhibitor, partial curve, poor fit] | 
7 | CC(=O)Oc1ccc(N(C(C)=O)S(=O)(=O)c2ccc(Cl)cc2)c2ccccc12 | inconclusive: 28.2 µM [inhibitor, partial curve, poor fit] | 
8 | CC(=O)NC(c1ccco1)c1cc(Cl)c2cccnc2c1O (stereo not given) | active: 7.94 µM | 
9 | COc1ccc(CNc2ncnc3c2[nH]c2ccccc23)cc1 | active: 2.82 µM | 
10 | Nc1c(C(=O)NCc2ccc(F)cc2)c2nc3ccccc3nc2n1CCCN1CCOCC1 | inconclusive: 3.55 µM [inhibitor, single point] | 
11 | Cc1cc(SCC(=O)OC/C(O)=C(\C#N)c2nc3ccccc3[nH]2)c(C)cc1Br | inconclusive: 22.4 µM [inhibitor, partial curve, poor fit] | 
12 | OCCN1CCN(C(=S)c2ccc(-c3ccccc3)cc2)CC1 | active: 2.51 µM | 
13 | CC(C)C(CCNCc1ccccn1)c1ccc(Cl)cc1 (stereo not given) | inconclusive: 14.1 µM [inhibitor, single point] | 
14 | S=C(Nc1ccccc1)Nc1ccc(OCc2ccc(Cl)cc2Cl)cc1 | active: 3.55 µM | 
15 | Cc1ccc(Cc2cnc(N3C(=N)SC(C)C3=O)s2)cc1 (stereo not given) | inconclusive: 8.91 µM [inhibitor, single point] | 
16 | CCN(CC)S(=O)(=O)c1ccc(NC(=O)Nc2cccc(C(F)(F)F)c2)cc1 | inconclusive: 4.47 µM [inhibitor, single point] | 
17 | O=C(CCSc1nc2ccccc2s1)N/N=C/c1c(O)ccc2ccccc12 | active: 7.94 µM | 
18 | CN1OC[C@@H]2CN[C@H](c3ccc(-c4cc5ccccc5o4)cc3)C[C@@H]21 | active: 0.0794 µM | 
19 | CCC(=O)NC(c1ccco1)c1cc(Br)c2cccnc2c1O (stereo not given) | active: 8.91 µM | 
20 | O=C(Nc1ccc(Cl)c([N+](=O)[O-])c1)c1ccc(NCCCN2CCOCC2)c([N+](=O)[O-])c1 |  | inactive: 1.7%
21 | N=c1n(CCCOc2ccccc2Cl)c2ccccc2n1CC(N)=O |  | inactive: 2.57%
22 | CN1CCC(N(C)C(=O)c2ccc(Cl)c(S(=O)(=O)N3CCc4ccccc43)c2)CC1 |  | inactive: -24.7%
23 | O=C(CN1C(=O)c2ccccc2S1(=O)=O)c1ccc(Cl)cc1Cl | active: 1 µM | 
24 | CS(=O)(=O)c1ccc(Nc2nc(C(N)Cc3ccc(C(F)(F)F)cc3)cs2)cc1 (stereo not given) | inconclusive: 20 µM [inhibitor, partial curve, poor fit] | 

Row | SMILES | Potency | activity change, negative = inhibition
25 | CCc1nc2ccccc2c(C(=O)OCC(=O)Nc2ccc(NC(C)=O)cc2)c1C | inconclusive: 7.08 µM [inhibitor, single point] | 
26 | COc1ccccc1Cc1c(-c2ccco2)nc2c(C)cc(Br)cn12 | inconclusive: 39.8 µM [inhibitor, single point] | 
27 | Cc1ccc(S(=O)(=O)c2cc3cc(Br)ccc3oc2=O)cc1 |  | inactive: -15.7%
28 | Cc1ccc(C(=O)N2CCN(c3ccc(NC(=S)NC(=O)c4cccs4)cc3)CC2)cc1 | inconclusive: 2.82 µM [inhibitor, partial curve, poor fit] | 
29 | CCCCCc1ccc(OCCCC[n+]2cccc(C)c2)c(CCCCC)c1 | active: 4.47 µM | 
30 | Cc1occc1C(=O)N/N=C/c1c(O)ccc2ccccc12 | inconclusive: 3.16 µM [inhibitor, full curve] | 
31 | CCOC(=O)c1sc2nc(CSc3ccccc3)nc(NCCN(C)C)c2c1C |  | inactive: -27.1%
32 | NC(=O)c1cccc(-c2ccnc3c2CC(C(=O)Nc2cccc(C(F)(F)F)c2)O3)c1 (stereo not given) | active: 3.98 µM | 
33 | Cc1ccc2ccc3cccnc3c2n1 | inconclusive: 5.01 µM [inhibitor, full curve, poor fit] | 
34 | COc1ccccc1CNc1nc(NCc2cccc(OC)c2OC)c2sccc2n1 | active: 17.8 µM | 
35 | CC1CC(Nc2ccccc2)c2ccccc2N1C(=O)c1cccnc1 (stereo not given) | inconclusive: 15.8 µM [inhibitor, partial curve] | 
36 | O=C(C(Br)=Cc1ccccc1)c1ccccc1 | inconclusive: 39.8 µM [inhibitor, single point] | 
37 | O=C(CNC(=O)c1ccc(F)cc1)N/N=C/c1cc(Br)ccc1OC(=O)/C=C/c1ccco1 | active: 8.91 µM | 
38 | CCn1c2ccccc2c2cc(NC(=O)COC(=O)c3ccccc3F)ccc21 |  | inactive: 9.52% [at 11.4 µM]
39 | CCN1CCN(C(=S)c2ccc(-c3ccccc3)cc2)CC1 | active: 2 µM | 
40 | CSc1ncnc2c1ncn2CC(=O)C1CCC2C3CCC4=CC(=O)CCC4(C)C3CCC12C (stereo not given) | inconclusive: 14.1 µM [inhibitor, partial curve, poor fit] | 
41 | CC(C)C[C@H](NC(=O)c1[nH]cnc1C(=O)Nc1ccc(CNC(=O)OC(C)(C)C)cc1)C(=O)OCc1ccccc1 |  | inactive: -24.4% [at 11.4 µM]
42 | CCc1ccc(N(CC)C(=O)c2ccc3c(Cl)c4c(nc3c2)CCC4)cc1 | inconclusive: 3.16 µM [inhibitor, partial curve, poor fit] | 
43 | CCn1c2ccccc2c2cc(NC(=O)COC(=O)c3cccc(S(=O)(=O)NC)c3)ccc21 |  | inactive: 21.7%
44 | O=C(c1ccoc1)N1CCN(c2cc(-c3ccccc3)nc3cc(-c4ccccc4)nn23)CC1 | active: 10 µM | 
45 | COc1cc(C(=O)OC(C)C(=O)N2CCc3ccccc3C2)ccc1OCC(=O)N1CCOCC1 (stereo not given) |  | inactive: -9.5% [at 11.4 µM]
46 | COc1cccc2nc3c(C(=O)NCCN(C)C)cccc3cc12 | inconclusive: 1.78 µM [inhibitor, full curve, poor fit] | 
47 | O=C(NNCc1ccccc1)c1ccccc1 | inconclusive: 12.6 µM [inhibitor, single point] | 
48 | C[C@@H]1CC=C[C@@H]2[C@H]1C(=O)N(Cc1ccccc1)[C@H]2c1ccccc1Br | inconclusive: 20 µM [inhibitor, single point] | 

Row | SMILES | Potency | activity change, negative = inhibition
49 | CN(C)C(=O)c1cccc(-c2cnc3c(NC=O)cc(-c4ccc(F)cc4)cn23)c1 |  | inactive: 49.3% [at 11.4 µM]
50 | Cc1ccc(-n2ncc(C(=O)Nc3ccc(Cl)cc3)c2C2CCNCC2)cc1C |  | inactive: -12.6%
51 | N=c1c2c(n(Cc3ccc(Br)cc3)c3c1CCC3)CCCC2 | active: 0.501 µM | 
52 | Cc1ccc(/C=C2\SC(=S)N(CCCC(=O)Nc3nccs3)C2=O)cc1 | inconclusive: 28.2 µM [inhibitor, single point] | 
53 | O=C(N/N=C1\CCCc2c1[nH]c1ccc(Cl)cc21)c1ccncc1 | inconclusive: 11.2 µM [inhibitor, partial curve] | 
54 | CCCCOc1ccc(CSC(=N)N)cc1Cl | inconclusive: 14.1 µM [inhibitor, single point] | 
55 | O=[N+]([O-])c1nn(-c2ccccc2)n(O)c1=NC1CCN(Cc2ccccc2)CC1 | inconclusive: 3.55 µM [inhibitor, partial curve] | 
56 | COc1cc(C=CC(=O)c2ccccc2)cc(OC)c1OC |  | inactive: -4.63%
57 | CCOC(=O)c1c(-c2ccccc2)oc2ccc(OCC(=O)NN)cc12 | active: 28.2 µM | 
58 | CN(C)CCNC(=O)c1cccc2[nH]c(-c3ccncc3)nc12 |  | inactive: -19.8% [at 11.4 µM]
59 | O=C(NCc1cc(C(F)(F)F)ccc1Cl)c1cccc2c1C(=O)c1ccc(N3CCC(N4CCCCC4)CC3)cc1S2(=O)=O | inconclusive: 28.2 µM [inhibitor, single point] | 
60 | Cc1cccc(OCCCC(=O)Nc2nccs2)c1 |  | inactive: 249% [at 11.4 µM]
61 | Cc1cc(C)c(C(O)c2ncc(-c3cccc4ccccc34)[nH]2)c(C)c1 (stereo not given) | inconclusive: 2.82 µM [inhibitor, partial curve, poor fit] | 
62 | NS(=O)(=O)c1ccc(Sc2nc3ccccc3s2)c([N+](=O)[O-])c1 | inconclusive: 1.58 µM [inhibitor, full curve, poor fit] | 
63 | CN(C)S(=O)(=O)c1cc(NC(=O)CSc2ncc(C(F)(F)F)cc2Cl)ccc1Cl | inconclusive: 17.8 µM [inhibitor, single point] | 
64 | CCn1cc(C(=O)NCc2cccc(F)c2)c(=O)c2cc(F)c(N3CCN(C(=O)c4ccco4)CC3)cc21 | active: 15.8 µM | 
65 | COc1cccc(NC(=O)/C=C/c2ccc(S(=O)(=O)N3CCOCC3)cc2)c1 | inconclusive: 28.2 µM [inhibitor, single point] | 
66 | CC1CCN(C(=O)c2cc3nc(-c4ccccc4)cc(-c4ccccc4)n3n2)CC1 | inconclusive: 4.47 µM [inhibitor, single point] | 
67 | COc1ccc(CNC(=O)c2ccc(-c3cccnc3)c3ccoc23)cc1OC | inconclusive: 15.8 µM [inhibitor, partial curve] | 
68 | O=C(CN1C(=O)c2ccccc2S1(=O)=O)Nc1ncc(Cl)cc1Cl | active: 3.16 µM | 
69 | NC(=O)N/N=C/c1c(O)ccc2oc3c(c12)CCCC3 |  | inactive: 111%
70 | CC(OC(=O)c1cc(Br)ccc1O)C(=O)Nc1ccc(S(=O)(=O)N2CCCC2)cc1 (stereo not given) | inconclusive: 14.1 µM [inhibitor, partial curve] | 
